# The list shows a part of the results. Shown are side measurements of this screen, not its main read-out; they come without a call. The list favours compounds with an active or inconclusive main result. Potencies come from curve fits of mixed quality, noted in brackets.
# Test: qHTS Assay for Lipid Storage Modulators (AID 1519)
# Conditions: Drosophila S3 cells, BODIPY lipid droplet/cell ratio, laser cytometry, cells loaded with oleic acid
# Outline: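 Cells seeded at 5,000 per well were treated with compounds over a concentration series and loaded with oleic acid (400 uM, as added). Lipid droplet fluorescence (488 nm excitation, 500-530 nm channel) was read by laser-scanning cytometry and normalized to 20 uM Triacsin C.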
# [1] = measured here: cell count channel max response
# [2] = measured here: cell number channel AC50
# [3] = measured here: lipid (BODIPY) channel AC50
# [4] = measured here: lipid channel max response
# Tags describe the fitted curve by direction and shape.
Compound,max response [1] [%],AC50 [2],AC50 [3],max response [4] [%]
Cc1cnc(CNc2nc(-c3cccc(NS(C)(=O)=O)c3)nc3ccccc23)cn1,34.5,"0.282 µM [rising, full curve]","0.316 µM [rising, full curve]",42.4
COc1ccc(Oc2ncc3nc(CCc4ccccc4)c(=O)n(C4CC4)c3n2)cc1,17.8,"3.16 µM [rising, partial curve]","3.16 µM [rising, partial curve]",20.3
NCCCCCCNS(=O)(=O)c1cccc2ccccc12,75.6,"12.6 µM [rising, partial curve]","14.1 µM [rising, partial curve]",106
C=CC(C)(O)CCCC(C)CCCC(C)CCCC(C)C (configuration not stated),66.4,"15.8 µM [rising, partial curve, poor fit]","28.2 µM [rising, partial curve, poor fit]",84
CN(C)c1nc(-c2ccc3c(c2)OCO3)nc2ccccc12,16.2,"0.00562 µM [rising, full curve, poor fit]","0.00631 µM [rising, full curve, poor fit]",24.8
CC(=O)Oc1ccc(/C=C/C(=O)CC2OC(Oc3cc(OC(C)=O)c4c(c3)O[C@@H](c3ccc(OC(C)=O)cc3)CC4=O)C(OC(C)=O)C(OC(C)=O)C2OC(C)=O)cc1 (some centres not stated),68.9,"3.98 µM [rising, full curve]","4.47 µM [rising, partial curve]",110
COc1ccc(CNc2nc(-c3ccccc3OC)nc3ccccc23)c(OC)c1,-34.9,"22.4 µM [falling, single point]","31.6 µM [falling, single point]",-87
COc1ccc(CNc2cc(-c3cccnc3)ncn2)c(OC)c1,20.7,"1.26 µM [rising, full curve, poor fit]","1.12 µM [rising, full curve, poor fit]",29.8
COc1ccc(-c2coc3cc(OC)cc(OC)c3c2=O)cc1,32.1,"2.24 µM [rising, full curve, poor fit]","1.12 µM [rising, full curve, poor fit]",44.9
COC(=O)N1CCC2(CC1)CN(C(=O)Nc1cccc(F)c1)C2,24.4,"0.00708 µM [rising, full curve, poor fit]","0.0112 µM [rising, full curve, poor fit]",33
COc1ncc2nc(CCc3ccccc3)c(=O)n(C3CC3)c2n1,28.2,"0.0141 µM [rising, full curve, poor fit]","0.02 µM [rising, full curve, poor fit]",40.5
COc1cc(C)c2c(=O)cc(-c3ccccc3)oc2c1,23.3,"5.01 µM [rising, partial curve]","2.51 µM [rising, full curve, poor fit]",38.7
COc1ccc(Oc2ncc3nc(C)c(=O)n(C4CC4)c3n2)cc1,13.8,"0.398 µM [rising, partial curve]","0.251 µM [rising, partial curve]",23.3
CCNc1ncc2ncc(=O)n(Cc3cccc(OC)c3)c2n1,10.7,"1.26 µM [rising, partial curve]","1.41 µM [rising, partial curve]",12.2
O=[N+]([O-])c1ccc2cn[nH]c2c1,35.2,"15.8 µM [rising, partial curve, poor fit]","25.1 µM [rising, partial curve, poor fit]",43.2
O=c1cc(-c2ccc(O)cc2O)oc2ccccc12,71.3,"12.6 µM [rising, partial curve]","12.6 µM [rising, partial curve]",94.6
COCCn1c(=O)cnc2cnc(N3CCOCC3)nc21,39,"17.8 µM [rising, partial curve]","17.8 µM [rising, partial curve]",46.2
CN(C)Cc1ccccc1-c1ccc2ncnc(NC3CCNCC3)c2c1,31,"39.8 µM [rising, single point]","39.8 µM [rising, single point]",44.5
